# According to the supplement of paper PMC10037445:
# Where “and” joins values, the source holds several entries; their conditions need not be identical. Equal values may be shown once. Whole data set: some 2,900 compounds, median “NF-kB SEAP reporter activity, fold change vs agonist alone” near 0.99, cut for the highest 2% near 2.6. Some of the results follow.
# Columns and labels:
# [1] = system: RAW-Dual; assay: NF-kB SEAP reporter activity, fold change vs agonist alone; higher = enhanced NF-kB activity
# In short: (§1)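 Reporter activity is given as fold change relative to agonist-alone wells. To measure it, 50 nL of library stock was pin-tooled onto RAW-Dual macrophages (50,000 cells/well, DMEM, 384-well plates), a PRR agonist followed 1 h later, and cells stayed at 37 °C, 5% CO2. Twenty hours on, supernatant was assayed for IRF (QuantiLuc luminescence) and NF-κB (QuantiBlue, 620 nm absorbance), and wells under 70% of agonist-control IncuCyte confluency in both mask sets were marked cytotoxic.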
# [2] = system: RAW-Dual; assay: NF-kB SEAP reporter activity, fold change vs agonist alone; cytotoxicity flag (confluency mask): not cytotoxic; higher = enhanced NF-kB activity
# In short: as §1
# [3] = system: RAW-Dual; assay: NF-kB SEAP reporter activity, fold change vs agonist alone; cytotoxicity flag (confluency mask): cytotoxic (confluency <70% of control); higher = enhanced NF-kB activity
# In short: as §1
# [4] = library stock concentration (final ~1000-fold dilution): 10 mM, cytotoxicity flag (confluency mask): not cytotoxic, agonist: Imiquimod (TLR7) […]
# [5] = library stock concentration (final ~1000-fold dilution): 10 mM, cytotoxicity flag (confluency mask): not cytotoxic, agonist: MPLA (TLR4) […]
# [6] = agonist: ODN 1826 (TLR9) 0.5 ug/mL
# [7] = agonist: Pam2CSK4 (TLR2/6) 0.1 ug/mL
# [8] = agonist: Pam3CSK4 (TLR2/1) 0.1 ug/mL
smiles,measurement,setting,value
C=CC(C)(/C=C/c1ccc(O)cc1)CCC=C(C)C (configuration not stated),NF-kB SEAP reporter activity,[1]; [4],1.1
same,NF-kB SEAP reporter activity,[1]; [5],1.12
C=CC(C)(/C=C/c1ccc(O)cc1)CCC=C(C)C (configuration not stated) (library stock concentration (final ~1000-fold dilution): 10 mM),NF-kB SEAP reporter activity,[2]; agonist: LPS (TLR4) 0.1 ug/mL,0.878
same,NF-kB SEAP reporter activity,[2]; [6],1.02
same,NF-kB SEAP reporter activity,[2]; [7],0.934
same,NF-kB SEAP reporter activity,[2]; [8],1.16
N#Cc1ccc(C(c2ccc(C#N)cc2)n2cncn2)cc1 (library stock concentration (final ~1000-fold dilution): 10 mM),NF-kB SEAP reporter activity,[2]; agonist: LPS (TLR4) 0.1 ug/mL,1.01
same,NF-kB SEAP reporter activity,[2]; [6],0.93
same,NF-kB SEAP reporter activity,[2]; [7],0.955
same,NF-kB SEAP reporter activity,[2]; [8],1.09
N#Cc1ccc(C(c2ccc(C#N)cc2)n2cncn2)cc1,NF-kB SEAP reporter activity,[1]; [4],0.839
same,NF-kB SEAP reporter activity,[1]; [5],0.983
CCCC1CC(C(=O)NC(C(C)Cl)C2OC(SC)C(O)C(O)C2O)N(C)C1 (configuration not stated),NF-kB SEAP reporter activity,[1]; [4],1.02
same,NF-kB SEAP reporter activity,[1]; [5],1.07
CCCC1CC(C(=O)NC(C(C)Cl)C2OC(SC)C(O)C(O)C2O)N(C)C1 (configuration not stated) (library stock concentration (final ~1000-fold dilution): 10 mM),NF-kB SEAP reporter activity,[2]; agonist: LPS (TLR4) 0.1 ug/mL,1.14
same,NF-kB SEAP reporter activity,[2]; [6],1.04
same,NF-kB SEAP reporter activity,[2]; [7],1.04
same,NF-kB SEAP reporter activity,[2]; [8],1.17
NC(=O)CCC(N)C(=O)O (configuration not stated),NF-kB SEAP reporter activity,"[1]; library stock concentration (final ~1000-fold dilution): L-Glutamine, cytotoxicity flag (confluency mask): not cytotoxic, agonist: Imiquimod (TLR7) […]",0.934
same,NF-kB SEAP reporter activity,"[1]; library stock concentration (final ~1000-fold dilution): L-Glutamine, cytotoxicity flag (confluency mask): not cytotoxic, agonist: MPLA (TLR4) […]",1.05
NC(=O)CCC(N)C(=O)O (library stock concentration (final ~1000-fold dilution): L-Glutamine),NF-kB SEAP reporter activity,[2]; agonist: LPS (TLR4) 0.1 ug/mL,1.1
same,NF-kB SEAP reporter activity,[2]; [6],1.14
same,NF-kB SEAP reporter activity,[2]; [7],1.18
same,NF-kB SEAP reporter activity,[2]; [8],1.02
C[N+]1(C)CCC(OC(=O)C(O)(c2ccccc2)C2CCCC2)C1 (configuration not stated) (library stock concentration (final ~1000-fold dilution): 10 mM),NF-kB SEAP reporter activity,[2]; agonist: LPS (TLR4) 0.1 ug/mL,1.13
same,NF-kB SEAP reporter activity,[2]; [6],1
same,NF-kB SEAP reporter activity,[2]; [7],1.09
same,NF-kB SEAP reporter activity,[2]; [8],1.01
C[N+]1(C)CCC(OC(=O)C(O)(c2ccccc2)C2CCCC2)C1 (configuration not stated),NF-kB SEAP reporter activity,[1]; [5],1.11
O=C(/C=C/c1ccc(O)c(O)c1)OCCc1ccccc1 (library stock concentration (final ~1000-fold dilution): 10 mM),NF-kB SEAP reporter activity,[3]; agonist: LPS (TLR4) 0.1 ug/mL,0.327 and 0.411
same,NF-kB SEAP reporter activity,[3]; [6],0.188 and 0.213
same,NF-kB SEAP reporter activity,[3]; [7],0.0802 and 0.0895
same,NF-kB SEAP reporter activity,[3]; [8],0.15 and 0.167
C=CC(=O)Nc1cccc(Oc2nc(Nc3ccc(N4CCN(C)CC4)cc3OC)ncc2Cl)c1,NF-kB SEAP reporter activity,[1]; [4],0.931
same,NF-kB SEAP reporter activity,[1]; [5],0.977
C=CC(=O)Nc1cccc(Oc2nc(Nc3ccc(N4CCN(C)CC4)cc3OC)ncc2Cl)c1 (library stock concentration (final ~1000-fold dilution): 10 mM),NF-kB SEAP reporter activity,[2]; agonist: LPS (TLR4) 0.1 ug/mL,0.915
same,NF-kB SEAP reporter activity,[2]; [6],0.863
same,NF-kB SEAP reporter activity,[2]; [7],0.802
same,NF-kB SEAP reporter activity,[2]; [8],0.684
CCCC(Nc1nc(-c2ccc(NC(=O)NCC)c(OC)c2)ncc1C)c1cccnc1 (configuration not stated) (library stock concentration (final ~1000-fold dilution): 10 mM),NF-kB SEAP reporter activity,[2]; agonist: LPS (TLR4) 0.1 ug/mL,5.93
same,NF-kB SEAP reporter activity,[2]; [6],3.66
same,NF-kB SEAP reporter activity,[2]; [7],2.2
same,NF-kB SEAP reporter activity,[2]; [8],2.92
CCCC(Nc1nc(-c2ccc(NC(=O)NCC)c(OC)c2)ncc1C)c1cccnc1 (configuration not stated),NF-kB SEAP reporter activity,[1]; [4],2.63
same,NF-kB SEAP reporter activity,[1]; [5],2.57
Cc1ccccc1CN1C2=NCCN2C(=O)C2=C1CCN(Cc1ccccc1)C2 (library stock concentration (final ~1000-fold dilution): 10 mM),NF-kB SEAP reporter activity,[2]; agonist: LPS (TLR4) 0.1 ug/mL,0.994
same,NF-kB SEAP reporter activity,[2]; [6],1.11
same,NF-kB SEAP reporter activity,[2]; [7],1.02
same,NF-kB SEAP reporter activity,[2]; [8],0.832
Cc1ccccc1CN1C2=NCCN2C(=O)C2=C1CCN(Cc1ccccc1)C2,NF-kB SEAP reporter activity,[1]; [4],0.937
same,NF-kB SEAP reporter activity,[1]; [5],1.04
CCCCCCCCCCCCCCCC(=O)NC(CCSC)C(=O)NCC(=O)NC(Cc1ccc(O)cc1)C(=O)NC(CCC(N)=O)C(=O)NC(CCCCN)C(=O)NC(CCCCN)C(=O)NC(CC(C)C)C(=O)NC(CCCNC(=N)N)C(=O)NC(CO)C(=O)NC(CCSC)C(=O)NC(C(=O)NC(CC(=O)O)C(=O)NC(CCCCN)C(=O)NC(Cc1ccc(O)cc1)C(=O)NC(CCCNC(=N)N)C(=O)NC(CC(C)C)C(=O)O)C(C)O (configuration not stated) (library stock concentration (final ~1000-fold dilution): 10 mM),NF-kB SEAP reporter activity,[3]; agonist: LPS (TLR4) 0.1 ug/mL,0.885
same,NF-kB SEAP reporter activity,[3]; [6],0.714
same,NF-kB SEAP reporter activity,[3]; [7],0.614
same,NF-kB SEAP reporter activity,[3]; [8],0.68
CCCCCCCCCCCCCCCC(=O)NC(CCSC)C(=O)NCC(=O)NC(Cc1ccc(O)cc1)C(=O)NC(CCC(N)=O)C(=O)NC(CCCCN)C(=O)NC(CCCCN)C(=O)NC(CC(C)C)C(=O)NC(CCCNC(=N)N)C(=O)NC(CO)C(=O)NC(CCSC)C(=O)NC(C(=O)NC(CC(=O)O)C(=O)NC(CCCCN)C(=O)NC(Cc1ccc(O)cc1)C(=O)NC(CCCNC(=N)N)C(=O)NC(CC(C)C)C(=O)O)C(C)O (configuration not stated),NF-kB SEAP reporter activity,"[1]; library stock concentration (final ~1000-fold dilution): 10 mM, cytotoxicity flag (confluency mask): cytotoxic (confluency <70% of control), agonist: Imiquimod (TLR7) […]",1.02
same,NF-kB SEAP reporter activity,"[1]; library stock concentration (final ~1000-fold dilution): 10 mM, cytotoxicity flag (confluency mask): cytotoxic (confluency <70% of control), agonist: MPLA (TLR4) […]",1.02
Cc1ccc2c(c1)C(=O)C1(O)CCN(c3ccccc3)C1=N2 (configuration not stated) (library stock concentration (final ~1000-fold dilution): 10 mM),NF-kB SEAP reporter activity,[2]; agonist: LPS (TLR4) 0.1 ug/mL,1.18
same,NF-kB SEAP reporter activity,[2]; [6],0.682
same,NF-kB SEAP reporter activity,[2]; [7],0.891
same,NF-kB SEAP reporter activity,[2]; [8],0.862
Cc1ccc2c(c1)C(=O)C1(O)CCN(c3ccccc3)C1=N2 (configuration not stated),NF-kB SEAP reporter activity,[1]; [4],1.07
same,NF-kB SEAP reporter activity,[1]; [5],1.17
C=C(CC(=O)OCCCCCCCC)C(=O)O,NF-kB SEAP reporter activity,[1]; [4],0.711
same,NF-kB SEAP reporter activity,[1]; [5],0.955
C=C(CC(=O)OCCCCCCCC)C(=O)O (library stock concentration (final ~1000-fold dilution): 10 mM),NF-kB SEAP reporter activity,[2]; agonist: LPS (TLR4) 0.1 ug/mL,0.76
same,NF-kB SEAP reporter activity,[2]; [6],0.641
same,NF-kB SEAP reporter activity,[2]; [7],0.455
same,NF-kB SEAP reporter activity,[2]; [8],0.645
CC(CSC(=O)c1ccccc1)C(=O)N1CC(Sc2ccccc2)CC1C(=O)O (configuration not stated) (library stock concentration (final ~1000-fold dilution): 2 mM),NF-kB SEAP reporter activity,[2]; agonist: LPS (TLR4) 0.1 ug/mL,1.44
same,NF-kB SEAP reporter activity,[2]; [6],1.01
same,NF-kB SEAP reporter activity,[2]; [7],1.16
same,NF-kB SEAP reporter activity,[2]; [8],1.26
CC(CSC(=O)c1ccccc1)C(=O)N1CC(Sc2ccccc2)CC1C(=O)O (configuration not stated),NF-kB SEAP reporter activity,"[1]; library stock concentration (final ~1000-fold dilution): 2 mM, cytotoxicity flag (confluency mask): not cytotoxic, agonist: Imiquimod (TLR7) […]",0.904
same,NF-kB SEAP reporter activity,"[1]; library stock concentration (final ~1000-fold dilution): 2 mM, cytotoxicity flag (confluency mask): not cytotoxic, agonist: MPLA (TLR4) […]",1.02
CS(=O)(=O)N1CCc2c(-c3cnc(N)nc3)nc(N3CCOCC3)nc21,NF-kB SEAP reporter activity,[1]; [4],1.07
same,NF-kB SEAP reporter activity,[1]; [5],0.909
